Our source for the survival values is PubChem BioAssay AID463173 (ICCB-Longwood Screening Facility, Harvard Medical School, 2010).

The whole screen tested about 52,000 compounds, of which about 1,700 (3.3%) were called active. Cut-off read from the data, not from the text of the source: active = survival mostly below about 52% (no sharp cut-off); inactive = mostly above about 56%. The list shows a part of the results.

The assay relates to Wild type. Description: S. aureus survival, RN4220 and DeltatarO strains – OD600, teichoic acid synthesis inhibitors, primary screen (AID 463173). To be noted: S. aureus RN4220 wild type/DeltatarO growth, OD600, 18 h, active compounds read low, screened at 18.75 µg/mL (by protocol).
In the case of `O=C(CN1CCC(NC(=O)C2CCCCC2)CC1)Nc1cccc(F)c1`, the survival is inactive: 111%.
As for `COc1ccc(NC(=O)CSc2oc(-c3cccs3)nc2S(=O)(=O)c2ccc(Br)cc2)c(OC)c1`, the survival was inactive: 77%.
Regarding `Cc1cccc(Cn2cc(C(=O)c3ccccc3)c(=O)c3cc4c(cc32)OCO4)c1`, the survival was inactive: 75%.
Take `Cc1ccc(Nc2sc(C(=O)c3ccccc3)c(N)c2C(=O)NC(C)C)cc1`: the survival was inactive: 78%.
As to `CCc1nonc1NC(=O)c1oc2cc(C)c(Cl)cc2c1C`, the survival is inactive: 90%.
On to `Cc1nc2ccn(Cc3cccs3)c(=O)c2cc1C(=O)NCc1ccccc1`, for which the survival was inactive: 73%.
Take `COc1ccc2c(c1)c1c(c(=O)n(-c3ccccc3C)c(=O)n1CC(=O)N1CCCC1)n2C`: the survival is inactive: 127%.
`COc1ccc(C2C=C(c3ccccc3)Nc3nc(NC(=O)/C=C/c4ccc(F)cc4)nn32)cc1` (stereo not given): the survival was inactive: 59%.
Take `CCOc1ccc(CNC(=O)C2CCN(S(=O)(=O)c3cn(C)cn3)CC2)cc1OC`: the survival was inactive: 73%.
Take `COc1cccc(CN2C(=O)CN(C3CCCCC3)C(=O)C2c2ccc(OC)c(OC)c2)c1` (stereo not given): the survival is inactive: 76%.
Then `CCc1nnc(NC(=O)CCC(=O)N2CCC(O)CC2)s1`, with inactive: 100%.
With `CCC(C)Sc1c(C(C)C)cnc2c1c(=O)n(C)c(=O)n2C` (stereo not given), the survival is inactive: 143%.
In the case of `COc1ccc(-c2cc(C(F)(F)F)c(C#N)c(SCC(=O)Nc3ccccc3F)n2)cc1`, the survival was inactive: 85%.
For `O=C(NC1CC1)C1CCCN1S(=O)(=O)c1ccccc1` (stereo not given), the survival was inactive: 113%.
As to `COc1cccc(CNc2nccn(-c3ccc(OC)c(OC)c3)c2=O)c1`, the survival was inactive: 124%.
Consider `Cc1nn(C)c2c1c(-c1ccccc1)cc(=O)n2Cc1ccc(Cl)cc1`, for which the survival was inactive: 76%.
As to `COc1ccc(-n2c(/C=C/c3c(C)[nH]c4ccccc34)nc3ccccc3c2=O)cc1`, the survival is inactive: 145%.
As to `CC1=C(C(=O)OC(C)C)C(C)C(C(=O)OC(C)C)=C(C)N1`, the survival was inactive: 121%.
As to `CCOc1ccc(S(=O)(=O)N2CCC(N3CCN(Cc4ccc(C)cc4)C(=O)C3=O)CC2)cc1`, the survival was inactive: 68%.
Consider `COc1ccccc1C(=O)Nc1ccc(OCc2cc(=O)n3ccc(C)cc3n2)cc1`, for which the survival was inactive: 85%.
For `COCc1cc(C)nc2sc3c(c12)NC(c1ccc(O)cc1)N(c1ccc(C)cc1)C3=O` (stereo not given), the survival was inactive: 63%.
Regarding `COc1ccc(C)cc1-n1c(-c2ccc(C)cc2)cc2c1CC(C)(C)CC2=O`, the survival was inactive: 108%.
With `O=C(Cn1c2ncccc2c(=O)n1-c1ccccc1)Nc1ccc(Cl)cc1C(F)(F)F`, the survival is inactive: 72%.
For `Cc1nn(C(=O)c2ccccc2)c(C)c1S(=O)(=O)N1CCCCCC1`, the survival is inactive: 80%.
In the case of `CCN(C(=O)c1cn(-c2ccc(OC)cc2)c(=O)c2ccccc12)c1cccc(Cl)c1`, the survival is inactive: 119%.
Then `CCn1c(=N)c(C(=O)NC2CCCC2)cc2c(=O)n3ccccc3nc21`, with inactive: 71%.
As for `O=C(OCc1cccc(C(F)(F)F)c1)c1ccc(-c2nnn(Cc3ccc(F)cc3)n2)cc1`, the survival is inactive: 83%.
For the molecule `CCOc1ccc(C(=O)OCc2cc(=O)n3cc(C)sc3n2)cc1`, the survival was inactive: 57%.
Next, `O=C(O)CSCCc1ccccn1`: inactive: 116%; `Nc1cc(N)nc(Sc2ncnc3ccccc23)n1`: inactive: 96%; `CC(C)N1CCc2nc(SCC(=O)Nc3cccc(F)c3)[nH]c(=O)c2C1`: inactive: 83%.
Consider `COc1ccc(-c2nc3scc(CCNC(=O)c4cc(OC)cc(OC)c4)n3n2)cc1`, for which the survival was inactive: 67%.
Then `CCOC(=O)C1CCCN(S(=O)(=O)c2ccc3[nH]c(=O)oc3c2)C1` (stereo not given), with inactive: 88%; and `COc1ccccc1NC(=O)c1sc2ncn(Cc3ccccc3Cl)c(=O)c2c1C`, with inactive: 125%.
On to `CCc1ccccc1NC(=O)c1sc(-n2nc(C)c(Cc3ccc4c(c3)OCO4)c2C)nc1C`, for which the survival is inactive: 117%.
Consider `CCCCCn1cc2c(c1-c1ccc(Cl)cc1)c(=O)n(C)c(=O)n2C`, for which the survival was inactive: 88%.
Take `COc1ccc2c(c1)C=C(C(=O)NCc1cc(Br)ccc1OC)CO2`: the survival was inactive: 75%.
Then `Cc1cccc(C(=O)Nc2ccc3oc(-c4ccncc4)nc3c2)c1`, with inactive: 74%; and `COc1ccc(-c2[nH]c3ccccc3c2SCCNC(=O)c2ccc(S(=O)(=O)N(C)C)cc2)cc1`, with inactive: 81%.
For `COc1ccc(S(=O)(=O)NCC(c2ccc(N(C)C)cc2)N2CCOCC2)cc1` (stereo not given), the survival was inactive: 88%.
For the molecule `COC(=O)c1cccc(Nc2nn3c(=O)c4cc5c(cc4nc3s2)OCO5)c1`, the survival is inactive: 75%.
Regarding `S=c1oc(-c2ccccc2)nn1CNc1ccccc1`, the survival was inactive: 92%.
Take `COc1ccc(CNC(=O)CSc2ncc(S(=O)(=O)c3ccc(Br)cc3)c(=O)[nH]2)cc1`: the survival was inactive: 64%.
As for `Cc1ccc2[nH]c3c(=O)n(CC(=O)NC(C)C)ncc3c2c1`, the survival was active: 1%.
`Cc1nn(-c2ccc(N3CCOCC3)nn2)c(C)c1CCC(=O)NCc1ccccc1F`: the survival is inactive: 94%.
Then `CCCCOc1ccc(CNC(=O)Cc2ccc(NC(=O)N3CCSc4ncccc43)cc2)cc1`, with inactive: 123%; and `CCNc1oc(-c2ccc(COc3ccc(Cl)cc3)o2)nc1C#N`, with inactive: 86%.
In the case of `O=C(CSC1=Nc2ccccc2N=C(c2ccc(F)cc2)C1)NCc1ccccc1Cl`, the survival is inactive: 78%.
With `CCOc1ccc(CNC(=O)c2sc3ncnc(N(C)C4CCCCC4)c3c2C)cc1`, the survival is inactive: 88%.
Consider `NC(=O)c1ccccc1NC(=O)Cn1nc(Cc2cccnc2)c2ccccc2c1=O`, for which the survival was inactive: 66%.
As to `O=C(O)CC1NC(=S)N(Cc2ccccc2)C1=O` (stereo not given), the survival is inactive: 108%.
Next, `Cc1cc(N(C(=O)Cn2nnc3ccccc32)C(C(=O)NCC2CCCO2)c2ccc(F)cc2)ccc1-n1cnnn1` (stereo not given): inactive: 104%; `Cc1ccc(Cl)cc1NC(=O)CSc1nc2c(c(=O)[nH]1)CN(Cc1ccccc1)CC2`: inactive: 82%; `COc1ccc(S(=O)(=O)N2CCN(CC(=O)Nc3ccc(Cl)c(C(F)(F)F)c3)CC2)cc1`: inactive: 73%.
`O=C(CSc1ncc(CO)n1Cc1ccc(Cl)cc1)NCc1ccc(F)cc1`: the survival is active: 14%.
With `COc1ccc(C(=O)Oc2cc(-c3ccc4c(c3)OCO4)cc(=O)c3c(C)oc(C)c23)cc1`, the survival is inactive: 117%.
Take `Cc1cccc(NC(=O)CSc2nc(=O)n(Cc3ccccn3)c3c2CCC3)c1C`: the survival is inactive: 94%.
As to `COc1ccc(CNC(=O)c2cc3cccc4c3n2CC(C)S4)c(OC)c1` (stereo not given), the survival is inactive: 127%.
As to `COC(=O)c1cc2oc(C)cc2n1CC(=O)Nc1cc(Cl)ccc1OC`, the survival was inactive: 88%.
Next, `O=C(CC12CC3CC(CC(C3)C1)C2)N1CCCOC1`: inactive: 114%; `Cc1ccc(-c2onc(C)c2C)cc1S(=O)(=O)Nc1ccc(Cl)cn1`: inactive: 89%.
For `Cc1ccccc1C(=O)Nc1ccc(C(=O)OCc2cc(=O)n3nc(C(C)C)sc3n2)cc1`, the survival was inactive: 65%.
For the molecule `O=C1CC(c2ccc3c(c2)OCO3)CC2=C1C(c1ccncc1)Nc1ccccc1N2` (stereo not given), the survival is inactive: 81%.
Turning to `COc1ccc(NC(=O)C2Cc3ccccc3N2C(=O)c2ccccc2)cc1OC` (stereo not given), the survival is inactive: 120%.
Then `CCCNC(=O)CSc1nc(-c2ccccc2)cc(C(F)(F)F)n1`, with inactive: 112%; and `CCOC(=O)c1ccc(NC(=O)CCc2c(C)nc3c(-c4ccc(F)cc4)c(C)nn3c2C)cc1`, with inactive: 88%; and `CCOc1ccc(NC(=O)N(C(C)C)C2CCN(C(C)=O)CC2)cc1`, with inactive: 64%.
On to `CCOc1ccc(-c2cn3c(n2)sc2cc(C(=O)NC4CCCc5ccccc54)ccc23)cc1` (stereo not given), for which the survival is inactive: 100%.
Turning to `Cc1ccc(NC(=O)CC(C)S(=O)(=O)c2ccc3c(c2)NC(=O)CO3)cc1C` (stereo not given), the survival was inactive: 100%.
On to `Cc1cccc(NC(=O)CSc2nc3c(oc4ccccc43)c(=O)n2-c2ccc(F)cc2)c1`, for which the survival is inactive: 74%.
Regarding `COc1ccc(Nc2cc(C(=O)NCc3ccccc3)c3ccccc3n2)c(OC)c1`, the survival is inactive: 128%.
With `Cc1oc2ccc(O)c(CN3CCCC3)c2c1C(=O)Nc1cccc(Cl)c1C`, the survival was inactive: 89%.
On to `O=S(=O)(c1ccc2nc(N3CCN(c4ccccc4)CC3)ccc2c1)N1CCCCC1`, for which the survival was active: 1%.
Regarding `COc1ccc(-c2noc(-c3cccc(OC)c3OC)n2)cc1`, the survival was active: -3%.
As for `COc1ccc(N(Cc2cccs2)C(=O)COc2cc(C)c(Cl)c(C)c2)cc1`, the survival is inactive: 79%.
As to `CCOc1ccc2nc(NC(=O)c3cc(=O)c4cc(C)cc(C)c4o3)sc2c1`, the survival was inactive: 83%.
Take `CN(C)c1ccc(-c2nnn(CC(=O)N(C)C3CCCCC3)n2)cc1`: the survival is inactive: 104%.
Turning to `COc1ccc(NC(=O)c2cn3c4c(ccc(Cl)c4c2=O)OC(C)C3)cc1OC` (stereo not given), the survival was inactive: 124%.
`CSc1ncc(C(=O)Nc2ccc(C(C)=O)cc2)c(-c2ccccc2)n1`: the survival is inactive: 83%.
Regarding `O=C(NCC1CCCO1)c1cccc2ccccc12` (stereo not given), the survival is inactive: 111%.
Turning to `COc1ccc(Cl)cc1NC(=O)Cn1cc2c(n1)CCC(C)C2` (stereo not given), the survival is inactive: 85%.
As for `O=c1c2cnn(-c3ccc(F)cc3)c2ncn1Cc1ccc(F)cc1`, the survival was inactive: 80%.
As for `COc1ccc(CNC(=O)C2Cc3cc(S(=O)(=O)N4CCCCCC4)ccc3N2C(C)=O)cc1` (stereo not given), the survival is inactive: 69%.
As for `CSc1nc(NC(C)=O)nc(C)c1Br`, the survival is inactive: 103%.
On to `COc1ccc(-c2cc(C(F)(F)F)nc(S(=O)(=O)CCC(=O)NCc3cccnc3)n2)cc1`, for which the survival was inactive: 103%.
Then `Cc1cc(-c2ccc(S(=O)(=O)Nc3ccc(Br)c(C)c3)s2)on1`, with inactive: 78%.
As to `CSc1nnc2[nH]c(=O)cc(C)n12`, the survival was inactive: 68%.
Take `N#Cc1c[nH]n2c(NC3CCCCC3)c(-c3cccc(Cl)c3)nc12`: the survival is inactive: 66%.
Take `CCOc1ccc2oc(=O)cc(CN3CCN(c4ccccc4)CC3)c2c1`: the survival was inactive: 89%.
`O=C(NC1CCCC1)C1CCCN(S(=O)(=O)c2ccc(-n3cnnn3)cc2)C1` (stereo not given): the survival was inactive: 108%.
